Results taken from patent publication US11178870B2 (priority 2017, dated 2021).

Tests used:
Assay type in all cases: in vivo
[1] = test system: Botrytis cinerea; assay: Test Example B: Gray mold on tomato; conditions: for Test B control value (gray mold on tomato): class of control value, Table 7; for control value, Test B (gray mold on tomato): Table 7, Test B; for Test B control value: Gray mold on tomato
[2] = test system: Alternaia brassicicola; assay: Test Example C: Alternaria sooty spot on cabbage; conditions: for Test C control value (Alternaria sooty spot on cabbage): class of control value, Table 7; for control value, Test C (Alternaria sooty spot on cabbage): Table 7, Test C; for Test C control value: Alternaria sooty spot on cabbage
[3] = test system: Blumeria graminis f. sp. hordei; assay: Test Example D: Powdery mildew on barley; conditions: for Test D control value (powdery mildew on barley): class of control value, Table 7; for control value, Test D (powdery mildew on barley): Table 7, Test D; for Test D control value: Powdery mildew on barley
[4] = test system: Puccinia recondita; assay: Test Example E: Brown rust on wheat; conditions: for Test E control value (brown rust on wheat): class of control value, Table 7; for control value, Test E (brown rust on wheat): Table 7, Test E; for Test E control value: Brown rust on wheat
[5] = test system: Plasmopara viticola; assay: Test Example G: Downy mildew on vine; conditions: for Test G control value (downy mildew on vine): 250 ppm spray, investigated 7 to 10 days after inoculation; for Test G control value (downy mildew on vine) / Test G control value: 2.5 ml/pot; for control value, Test G (downy mildew on vine): 250 ppm sprayed (2.5 ml/pot) before inoculation, assessed 7 to 10 days after inoculation; for Test G control value: Downy mildew on vine, 250 ppm sprayed, 7 to 10 days after inoculation

SMILES	Test B control value (gray mold on tomato) [1]	Test C control value (Alternaria sooty spot on cabbage) [2]	Test D control value (powdery mildew on barley) [3]	Test E control value (brown rust on wheat) [4]	Test G control value (downy mildew on vine) [5]	control value, Test B (gray mold on tomato) [1]	control value, Test C (Alternaria sooty spot on cabbage) [2]	control value, Test D (powdery mildew on barley) [3]	control value, Test E (brown rust on wheat) [4]	control value, Test G (downy mildew on vine) [5]	Test B control value [1]	Test C control value [2]	Test D control value [3]	Test E control value [4]	Test G control value [5]
Cn1c(-c2c(F)cccc2F)c(-c2ccsc2Br)ccc1=O [Compound 456]	H (H shows the control value more than 50%)	H (H shows the control value more than 50%)	L (L shows the control value of 50% or less)	H (H shows the control value more than 50%)	L (L shows the control value of 50% or less)	–	–	–	–	–	–	–	–	–	–
CCn1c(-c2ccc(F)cc2F)c(-n2cc(F)cn2)cc(Br)c1=O [Compound 252]	–	–	–	–	–	H (H shows the control value more than 50%)	H (H shows the control value more than 50%)	H (H shows the control value more than 50%)	H (H shows the control value more than 50%)	L (L shows the control value of 50% or less)	–	–	–	–	–
COc1cc(F)c(-c2c(-n3cc(Cl)cn3)cc(Br)c(=O)n2CC(F)F)c(F)c1 [Compound 222]	–	–	–	–	–	H (H shows the control value more than 50%)	H (H shows the control value more than 50%)	H (H shows the control value more than 50%)	H (H shows the control value more than 50%)	L (L shows the control value of 50% or less)	–	–	–	–	–
CCn1c(-c2c(F)cc(F)cc2F)c(-c2ocnc2Br)cc(Cl)c1=O [Compound 113]	–	–	–	–	–	–	–	–	–	–	H (H shows the control value more than 50%)	H (H shows the control value more than 50%)	H (H shows the control value more than 50%)	H (H shows the control value more than 50%)	L (L shows the control value of 50% or less)
CCn1c(-c2c(F)cccc2F)c(-c2ccsc2C)ccc1=O [Compound 377]	H (H shows the control value more than 50%)	H (H shows the control value more than 50%)	H (H shows the control value more than 50%)	H (H shows the control value more than 50%)	L (L shows the control value of 50% or less)	–	–	–	–	–	–	–	–	–	–
CCn1c(-c2c(F)cc(OC)cc2F)c(-n2cc(Cl)c(C)n2)cc(Br)c1=O [Compound 146]	–	–	–	–	–	–	–	–	–	–	H (H shows the control value more than 50%)	H (H shows the control value more than 50%)	L (L shows the control value of 50% or less)	H (H shows the control value more than 50%)	H (H shows the control value more than 50%)
Cn1c(-c2c(F)cccc2F)c(-c2sc(Br)cc2Cl)cc(Br)c1=O [Compound 442]	L (L shows the control value of 50% or less)	L (L shows the control value of 50% or less)	L (L shows the control value of 50% or less)	L (L shows the control value of 50% or less)	L (L shows the control value of 50% or less)	–	–	–	–	–	–	–	–	–	–
CCn1c(-c2c(F)cccc2F)c(-c2ocnc2Br)cc(Cl)c1=O [Compound 49]	–	–	–	–	–	–	–	–	–	–	H (H shows the control value more than 50%)	H (H shows the control value more than 50%)	H (H shows the control value more than 50%)	H (H shows the control value more than 50%)	H (H shows the control value more than 50%)
Cc1sccc1-c1cc(Cl)c(=O)n(C)c1-c1c(F)cccc1F [Compound 484]	H (H shows the control value more than 50%)	H (H shows the control value more than 50%)	L (L shows the control value of 50% or less)	H (H shows the control value more than 50%)	L (L shows the control value of 50% or less)	–	–	–	–	–	–	–	–	–	–
CCn1c(-c2ccccc2Cl)c(-n2ncc(C)c2Cl)cc(Cl)c1=O [Compound 179]	–	–	–	–	–	–	–	–	–	–	H (H shows the control value more than 50%)	H (H shows the control value more than 50%)	H (H shows the control value more than 50%)	H (H shows the control value more than 50%)	H (H shows the control value more than 50%)
CCn1c(-c2ccc(F)cc2Br)c(-n2cc(Cl)cn2)cc(Cl)c1=O [Compound 165]	–	–	–	–	–	–	–	–	–	–	H (H shows the control value more than 50%)	H (H shows the control value more than 50%)	H (H shows the control value more than 50%)	H (H shows the control value more than 50%)	L (L shows the control value of 50% or less)
CCn1c(-c2ccccc2C)c(-n2ncc(C)c2Cl)cc(Cl)c1=O [Compound 244]	–	–	–	–	–	H (H shows the control value more than 50%)	H (H shows the control value more than 50%)	H (H shows the control value more than 50%)	H (H shows the control value more than 50%)	L (L shows the control value of 50% or less)	–	–	–	–	–
CCOc1cc(F)c(-c2c(-n3cc(Cl)cn3)cc(Cl)c(=O)n2CC)c(F)c1 [Compound 200]	–	–	–	–	–	H (H shows the control value more than 50%)	H (H shows the control value more than 50%)	H (H shows the control value more than 50%)	H (H shows the control value more than 50%)	L (L shows the control value of 50% or less)	–	–	–	–	–
Cc1cnn(-c2ccc(=O)n(C)c2-c2ccc(F)cc2Cl)c1 [Compound 474]	H (H shows the control value more than 50%)	L (L shows the control value of 50% or less)	H (H shows the control value more than 50%)	H (H shows the control value more than 50%)	L (L shows the control value of 50% or less)	–	–	–	–	–	–	–	–	–	–
Cc1cnn(-c2cc(Cl)c(=O)n(CC(F)F)c2-c2ccc(F)cc2F)c1Cl [Compound 255]	–	–	–	–	–	H (H shows the control value more than 50%)	H (H shows the control value more than 50%)	H (H shows the control value more than 50%)	H (H shows the control value more than 50%)	H (H shows the control value more than 50%)	–	–	–	–	–
O=c1ccc(-n2cc(Cl)cn2)c(-c2ccccc2F)n1CC(F)F [Compound 276]	–	–	–	–	–	L (L shows the control value of 50% or less)	H (H shows the control value more than 50%)	H (H shows the control value more than 50%)	L (L shows the control value of 50% or less)	L (L shows the control value of 50% or less)	–	–	–	–	–
CCn1c(-c2c(F)cccc2F)c(-c2sc(Cl)cc2Cl)cc(Cl)c1=O [Compound 396]	L (L shows the control value of 50% or less)	L (L shows the control value of 50% or less)	L (L shows the control value of 50% or less)	L (L shows the control value of 50% or less)	L (L shows the control value of 50% or less)	–	–	–	–	–	–	–	–	–	–
CCn1c(-c2c(F)cc(F)cc2F)c(-c2c(Cl)cnn2C)cc(Cl)c1=O [Compound 22]	–	–	–	–	–	–	–	–	–	–	H (H shows the control value more than 50%)	H (H shows the control value more than 50%)	H (H shows the control value more than 50%)	H (H shows the control value more than 50%)	H (H shows the control value more than 50%)
CCn1c(-c2c(F)cc(F)cc2F)c(-n2cnc(Cl)c2Cl)cc(Br)c1=O [Compound 139]	–	–	–	–	–	–	–	–	–	–	H (H shows the control value more than 50%)	H (H shows the control value more than 50%)	H (H shows the control value more than 50%)	H (H shows the control value more than 50%)	H (H shows the control value more than 50%)
CCn1c(-c2c(F)cc(OC)cc2F)c(-c2oc(Br)nc2Br)cc(Br)c1=O [Compound 102]	–	–	–	–	–	–	–	–	–	–	H (H shows the control value more than 50%)	H (H shows the control value more than 50%)	L (L shows the control value of 50% or less)	L (L shows the control value of 50% or less)	H (H shows the control value more than 50%)
